Results taken from the RNAGym collection of RNA variant scans (doi:10.1073/pnas.2313332121).
Variants at the floor of the assay are shown more often than the library holds them.

B1: TPR 5TU (parent)
chain: GGAUCUUCUCGAUCUAACAAAAAAGACAAAUCUGCCACAAAGCUUGAGAGCAUCUUCGGAUGCAGAGGCGGCAGCCUUCGGUGGCGCGAUAGCGCCAACGUUCUCAACUAUGACACGCAAAACGCGUGCUCCGUUGAAUGGAGUUUAUCAUG

Variants of: B1
Experiment: polymerase ribozyme fitness, log enrichment relative to wild type (log ratio); higher = more active; in vitro selection for triplet polymerase activity
Outline: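 Libraries of mutants in each subunit of a heterodimeric triplet polymerase ribozyme were generated by PCR and transcribed. In triplicate, each went through one in vitro selection round: annealing with biotinylated primer, partner subunit and triplets; frozen incubation at −7 °C; gel excision of extended constructs; streptavidin-bead capture; RT-PCR. Fitness, taken from Illumina sequencing of input and output libraries, is the logarithm of a genotype's enrichment over wild-type enrichment, averaged across replicates with inverse-variance weights. The logarithm is base 2, and genotypes needed ≥10 input reads and ≥1 read per output to be kept.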

Going from GGAUCUUCUCGAUCUAACAAAAAAGACAAAUCUGCCACAAAGCUUGAGAGCAUCUUCGGAUGCAGAGGCGGCAGCCUUCGGUGGCGCGAUAGUGCCAACGUUCUCAUCUAUGACACGCAAAACGCGUGCUCCGUUGAAUGGAGUUUAACAUG [C93U A107U U148A] to GGAUCUUCUCGAUCUAACAAAAAAGACAAAUCUGCCACAAAGCUUGAGAGCAUCUUCGGAUGCAGAGGCGGCAGCCUUCGGUGGCGCGAUAGUGCCAACGUUCUCAACUAUGACACGCGAAAUGCGUGCUCCGUGGAAUGGAGUUUAUCAUG [C93U A119G C123U U135G], the “polymerase ribozyme fitness (log ratio)” value rises from at most -4.2 to -4.18.

First: GGAUCUUCUCGAUCUAACAAAAAAGACAAAUCUGCCACAAAGCUUGAGAGCAUCUUCGGAUGCAGAGGCGGCAGCCUUCGGUGGCGCGAUAGUGCCAACGUUCUCAACUGUGACACGCAAAACGCGUGCUCCGUUGAAUGGAGUUUAUCAUG [C93U A110G]
Second: GGAUCUUCUCGAUCUAACAAAAAAGACAAAUCUGCCACAAAGCUUGAGAGCAUCUUCGGAUGCAGAGGCGGCAGCCUUCGGUGGCGCGAUAGGGCCAACGUUCUCAACUAUGACACGCAAAACGCGUGCUCCGUUGAAUUGAGUUUAUCAUG [C93G G140U]
The “polymerase ribozyme fitness (log ratio)” value of the first is higher: -3.25 for the first, at most -4.2 for the second.

Compared with GGAUCUUCUCGAUCUAACAAAAAAGACAAAUCUGCCACAAAGCUUGAGAGCAUCUUCGGAUGCAGAGGCGGCAGCCUUCGGUGGCGCGAUAGUGCCAACGUUCUCCACUAUGACACGCAAAACGCGUGCUCCGUUGAAUGGAGUUUAUCAUG [C93U A106C], GGAUCUUCUCGAUCUAACAAAAAAGACAAAUCUGCCACAAAGCUUGAGAGCAUCUUCGGAUGCAGAGGCGGCAGCCUUCGGUGGCGCGAUAGUGCCACCGUUCUCAACUAUGACACGCAAAACGCGUGCUCCGUUGAAUGGAGUUUAUCAUG [C93U A98C] is higher in “polymerase ribozyme fitness (log ratio)” value: -1.75 for the first, -0.981 for the second.

GGAUCUUCUCGAUCUAACAAAAAAGACAAAUCUGCCACAAAGCUUGAGAGCAUCUUCGGAUGCAGAGGCGGCAGCCUUCGGUGGCGCGAUAGGGCCAACGUUCUCAACUAUGACACGCAAAACGCGUGCACCGUUGAAUGUAGUUUAUCAUG [C93G U130A G141U] and GGAUCUUCUCGAUCUAACAAAAAAGACAAAUCUGCCACAAAGCUUGAGAGCAUCUUCGGAUGCAGAGGCGGCAGCCUUCGGUGGCGCGAUAGGGCCAACGUUCUCAACUAUGACACGCAAAACGCGUGCUCCGUUGAAUGGACUUUAUCAUG [C93G G143C] cannot be ordered by “polymerase ribozyme fitness (log ratio)” value: at most -4.2 for the first, at most -4.2 for the second.

First: GGAUCUUCUCGAUCUAACAAAAAAGACAAAUCUGCCACAAAGCUUGAGAGCAUCUUCGGAUGCAGAGGCGGCAGCCUUCGGUGGCGCGAUAGGGCCAACGUUCUCAACUAUGACACGCAAAACGCGUGCUCCGUUGAAUGGAGUUUAGCAUG [C93G U148G]
Second: GGAUCUUCUCGAUCUAACAAAAAAGACAAAUCUGCCACAAAGCUUGAGAGCAUCUUCGGAUGCAGAGGCGGCAGCCUUCGGUGGCGCGAUAGUGCCAACGUUCUCAACUAUGACACGCUAAACGCGUGCUCCGUUGAAUGAAGUUUAUCAUG [C93U A119U G141A]
The “polymerase ribozyme fitness (log ratio)” value of the first is lower: at most -4.2 for the first, -0.528 for the second.

GGAUCUUCUCGAUCUAACAAAAAAGACAAAUCUGCCACAAAGCUUGAGAGCAUCUUCGGAUGCAGAGGCGGCAGCCUUCGGUGGCGCGAUAGUGCCAACGUUCUCAACUAUGACGCGCAACACGCUUGCUCCGUUGAAUGGAAUUUAUCAUG [C93U A115G A121C G126U G143A] and GGAUCUUCUCGAUCUAACAAAAAAGACAAAUCUGCCACAAAGCUUGAGAGCAUCUUCGGAUGCAGAGGCGGCAGCCUUCGGUGGCGCGAUAGUGCCAACGUUCUCAACUGUGACACGGAAAACGCGUGCUCCGUUGAAUGGAGUUUACCAUG [C93U A110G C118G U148C] cannot be ordered by “polymerase ribozyme fitness (log ratio)” value: at most -4.2 for the first, at most -4.2 for the second.

Compared with GGAUCUUCUCGAUCUAACAAAAAAGACAAAUCUGCCACAAAGCUUGAGAGCAUCUUCGGAUGCAGAGGCGGCAGCCUUCGGUGGCGCGAUAGUGCCAACGUUCUCAGCUAUGACACGCAAAACGCGUGCUCCGUUGAAUGGAGUUUAUCAUG [C93U A107G], GGAUCUUCUCGAUCUAACAAAAAAGACAAAUCUGCCACAAAGCUUGAGAGCAUCUUCGGAUGCAGAGGCGGCAGCCUUCGGUGGCGCGAUAGUGCCUACGUUCUCAACUAUGACACGCAAAACGCGUGCUCCGUUGAAUGGAGUUUAUCAUG [C93U A97U] is higher in “polymerase ribozyme fitness (log ratio)” value: at most -4.2 for the first, -2.14 for the second.

GGAUCUUCUCGAUCUAACAAAAAAGACAAAUCUGCCACAAAGCUUGAGAGCAUCUUCGGAUGCAGAGGCGGCAGCCUUCGGUGGCGCGAUAGGGCCAACGUUCUCAACUAUGACACGCAAAACGCGUGCUCCAUCGAAUGGAGGUUAUCAUG [C93G G133A U135C U144G] and GGAUCUUCUCGAUCUAACAAAAAAGACAAAUCUGCCACAAAGCUUGAGAGCAUCUUCGGAUGCAGAGGCGGCAGCCUUCGGUGGCGCGAUAGGGCCAACGUUCUCAACUAUCACACGCAAAACGCGUGCUCCGUUGAAUGGAGUUUAUCAUG [C93G G112C] cannot be ordered by “polymerase ribozyme fitness (log ratio)” value: at most -4.2 for the first, at most -4.2 for the second.

Going from GGAUCUUCUCGAUCUAACAAAAAAGACAAAUCUGCCACAAAGCUUGAGAGCAUCUUCGGAUGCAGAGGCGGCAGCCUUCGGUGGCGCGAUAGGGCCAACGCUCUCAACUAUGACACGCAAAACGCGUGCUCCGUUGAAUGGAGUUUAUCAUG [C93G U101C] to GGAUCUUCUCGAUCUAACAAAAAAGACAAAUCUGCCACAAAGCUUGAGAGCAUCUUCGGAUGCAGAGGCGGCAGCCUUCGGUGGCGCGAUAGGGCCAACGUUCUCAACUAUGACACGCAAAACGGGUGCUCCGUUGAAUGGAGUUUAUCUUG [C93G C125G A150U], the “polymerase ribozyme fitness (log ratio)” value falls from -3.2 to -4.06.

In the case of GGAUCUUCUCGAUCUAACAAAAAAGACAAAUCUGCCACAAAGCUUGAGAGCAUCUUCGGAUGCAGAGGCGGCAGCCUUCGGUGGCGCGAUAGGGCCAACGUUCUCAACUAUGACACGCAAAACGCGUUCUCCGUUGAAUGGAGUAUAUCAUG [C93G G128U U145A], the “polymerase ribozyme fitness (log ratio)” value is reported as at most -4.2.
